Source: PubChem BioAssay AID624296 (National Center for Advancing Translational Sciences (NCATS), 2012)
About 9,900 (2.8%) of roughly 350,000 compounds were called active. This list was built around the results that the source calls inconclusive (neither active nor inactive); the mix of calls is not that of the screen. Calls come from the whole dose curve; as a rule, active = well fitted activation curve with a large enough effect; inconclusive = small, poorly fitted or top-dose-only effect; inactive = no such curve, though single readings can be large or run the other way. Potencies of inconclusive entries are left out as doubtful fits.

Assay: A quantitative high throughput screen for small molecules that induce DNA re-replication in MCF 10a normal breast cells. For activity, positive = re-replication: % of control where 0% means no effect. Note: nearly all actives have a fitted effect of over 50% in size.
Details: MCF 10A DNA re-replication, Hoechst nuclear intensity, 48 h; activity, positive = re-replication: at 46.1 µM (top of the series)
Potency is the fitted concentration of half-maximal effect; tags give direction and shape of the fitted curve.

| SMILES | Potency | activity, positive = re-replication |
| --- | --- | --- |
| O=C(Nc1ccc(S(=O)(=O)N2CCCC2)cc1)c1cncc(Br)c1 | inconclusive [activator, single point] |  |
| N#C/C(=C\c1cn(Cc2cccc(F)c2)c2ccccc12)C(=O)NCc1ccco1 | active: 13 µM |  |
| COc1cccc(C2CC(c3cccc(NS(C)(=O)=O)c3)=NN2C(=O)c2ccccc2)c1OC (configuration not stated) |  | inactive: 12.8% |
| CC(C)C(OC(=O)CN1C(=O)COc2ccccc21)C(=O)NC1CCCCC1 (configuration not stated) |  | inactive: 11% |
| CN(C)C(=O)c1ccc(-c2n[nH]c(=O)c3ccccc23)cc1 | active: 0.82 µM |  |
| CCCc1cc(=O)oc2cc(C)cc(OCC(=O)N3CCC(C(=O)O)CC3)c12 |  | inactive: 22% |
| CCc1cc(=O)oc2c(CN3CCCC3)c(O)c(Cl)cc12 | inconclusive [activator, single point] |  |
| NS(=O)(=O)c1ccc(CCNC(=O)C(=O)NCC2OCCN2S(=O)(=O)c2ccc(F)cc2)cc1 (configuration not stated) |  | inactive: -0.675% |
| CCN(CC)c1nc(SCCOC(=O)Nc2ccccc2)nc(N(CC)CC)n1 | active: 9.2 µM |  |
| Cc1ccc(CNS(=O)(=O)/C=C/c2ccc3c(c2)OCO3)cc1 |  | inactive: 1.86% |
| CC(=O)N1c2ccc(S(=O)(=O)NCC3CCC(C(=O)Nc4ncccc4C)CC3)cc2CC1C (configuration not stated) |  | inactive: 0.372% |
| O=C(NCCN1C(=O)S/C(=C\c2ccc(Cl)cc2)C1=O)c1ccc(F)c(S(=O)(=O)N2CCOCC2)c1 |  | inactive: 2.39% |
| COC(=O)c1ccc(NS(=O)(=O)c2ccc(-c3cc(C)no3)s2)cc1 | inconclusive [activator, single point] |  |
| COc1ccc(NC(=S)N2CCN(C/C=C/c3ccccc3)CC2)cc1OC |  | inactive: 9.27% |
| Cc1cc2ncn(-c3ncnc4sc(C)c(C)c34)c2cc1C |  | inactive: -3.06% |
| CCOC(=O)c1c(C)[nH]c(C)c1C(=O)COC(=O)c1cccc(C)c1O | inconclusive [activator, partial curve, poor fit] |  |
| CCOc1ccc(C2/C(=C(\O)c3ccc4c(c3)OCCO4)C(=O)C(=O)N2CCCN2CCOCC2)cc1OC (configuration not stated) | inconclusive [activator, single point] |  |
| C[C@@]12CCC3[C@@](CCC4[C@@]3(C)CCC[C@@]4(C)C(=O)N3CCOCC3)(CC1=O)C2 (some centres not stated) |  | inactive: 3.37% |
| O=C(Nc1ccccc1C(=O)N1CCCCC1)c1ccccc1C(F)(F)F |  | inactive: -0.217% |
| O=C(NCNC(=O)c1ccccc1)c1ccccc1 | inconclusive [activator, single point] |  |
| CCOC(=O)c1oc2cccc(OCC(O)CNC(C)C)c2c1C (configuration not stated) | inconclusive [activator, single point] |  |
| O=C(c1cnn(C(=O)c2cccc(S(=O)(=O)N3CCOCC3)c2)c1)c1cc(Cl)cc(Cl)c1O | inconclusive [activator, single point] |  |
